Experimental data taken from the supplement of paper PMC11876631.
Numbering of substitutions follows the chain as printed. In names and notes the source's numbering stands. ± gives the standard deviation of the averaged measurements. Laboratory Escherichia coli strains with one amino-acid change in an essential protein, pooled on minimal glucose agar with carbenicillin or gentamicin at twice the control MIC (plus kanamycin and chloramphenicol for the plasmids), 48 h. Fold change of barcode share against drug-free plates; higher = less susceptible. Active = above 20 in both replicates (the paper's putatively resistant). '<' = one read or none on drug, '>' = one read or none on a drug-free plate. Shares are relative, so most strains fall below 1 when a few take over. Listed are strains with at least 15 reads on both drug-free plates, and hits; most hits rest on fewer reference reads. Replicate rank correlation about 0.5. Edits are read from barcodes.

B1: fabB I170W (protein)
chain: MKRAVITGLGIVSSIGNNQQEVLASLREGRSGITFSQELKDSGMRSHVWGNVKLDTTGLIDRKVVRFMSDASIYAFLSMEQAIADAGLSPEAYQNNPRVGLIAGSGGGSPRFQVFGADAMRGPRGLKAVGPYVVTKAMASGVSACLATPFKIHGVNYSISSACATSAHCWGNAVEQIQLGKQDIVFAGGGEELCWEMACEFDAMGALSTKYNDTPEKASRTYDAHRDGFVIAGGGGMVVVEELEHALARGAHIYAEIVGYGATSDGADMVAPSGEGAVRCMKMAMHGVDTPIDYLNSHGTSTPVGDVKELAAIREVFGDKSPAISATKAMTGHSLGAAGVQEAIYSLLMLEHGFIAPSINIEELDEQAAGLNIVTETTDRELTTVMSNSFGFGGTNATLVMRKLKD
B2: fabB V185W (protein)
chain: B1 chain with W170I, V185W
B3: fabB V174D (protein)
chain: B1 chain with W170I, V174D
B4: fabB V174W (protein)
chain: B1 chain with W170I, V174W
B5: fabB V185A (protein)
chain: B1 chain with W170I, V185A
B6: fabB V174A (protein)
chain: B1 chain with W170I, V174A

Molecular target: Escherichia coli (laboratory strain)
Experiment: barcode share on antibiotic plates over drug-free plates; higher = less susceptible
Procedure: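 A pool of E. coli strains, each edited to carry one amino-acid change in an essential protein, was grown for 48 h on minimal glucose agar with or without antibiotic; strain barcodes were sequenced; mean of two replicates.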

[1] = antibiotic: carbenicillin, 2× MIC (3.1 µg/mL)
[2] = antibiotic: gentamicin, 2× MIC (MIC 0.45 µg/mL)

Protein | fold change of barcode share [1] | fold change of barcode share [2]
B1 | 0.683 ± 0.42 | 0.0694 ± 0.049
B2 | 0.327 ± 0.19 | < 0.00557
B3 | 0.246 ± 0.071 | 0.00923 ± 0.0039
B4 | 0.287 ± 0.16 | < 0.00671
B5 | 0.558 ± 0.48 | < 0.00813
B6 | 0.372 ± 0.059 | < 0.00682
